# Measurements reported in PubChem BioAssay AID662 (National Center for Advancing Translational Sciences (NCATS), 2007).
# Out of some 71,000 compounds screened, about 1,800 (2.5%) were called active. Inconclusive results, whose numbers are uncertain, are shown with a selection of clear calls. Calls come from the whole dose curve; as a rule, active = well fitted activation curve with a large enough effect in the signal ratio, with a control signal flat (not every such curve was filed as active); inconclusive = small, poorly fitted or top-dose-only effect, or effect the other way, or a change in a side signal; inactive = flat fitted curve, though single readings scatter; the % refers to the signal ratio. A potency beside an inconclusive call is a rough fit, not a confirmed value.
# Assay: Cell signaling CRE-BLA (Fsk stim); for activity change, negative = inhibition: % of control where 0% means no effect
# Settings: CHO CRE-bla reporter (cAMP response element driving beta-lactamase), forskolin EC10, beta-lactamase ratio
# In short: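 CRE-bla CHO reporter cells treated with compound titration plus EC10 NKH 477 (water-soluble forskolin), incubated 3 h at 37 °C; CCF4 loading 2 h at room temperature, 460/530 nm emission ratio read, AC50 values derived for positive or negative modulators.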
# [1] = activity change, negative = inhibition: at 38.2 µM (top of the series) unless noted
# Potency is the fitted concentration of half-maximal effect; tags give direction and shape of the fitted curve.
compound,measurement,setting,value
CCCCCn1c(N2CCN(Cc3ccccc3)CC2)nc2c1c(=O)[nH]c(=O)n2C,Potency,[1],"inconclusive: 12.6 µM [rising, single point]"
Cc1cc(N2CCN(S(=O)(=O)c3ccc4c(c3)OCCO4)CC2)n2ncnc2n1,Potency,[1],active: 5.01 µM
O=c1c(-c2cccc(Cl)c2)nc2cncnc2n1Cc1ccccc1,Potency,[1],"inconclusive: 10 µM [rising, partial curve]"
O=C(O)c1cc2cc(F)ccc2[nH]1,"activity change, negative = inhibition",[1],inconclusive: -4.59%
same,"activity change, negative = inhibition",at 38.2 µM (top of the series),inactive: -0.803%
O=C(c1ccc2c(c1)OCO2)N1CCN(c2ccccc2)CC1,"activity change, negative = inhibition",[1],inactive
CCCCCCN1CC(O)=C(c2nc3ccccc3[nH]2)C1=N,Potency,[1],"inconclusive: 3.98 µM [falling, single point]"
Nc1ncnc2nc(SCC(=O)N3CCN(c4ccccc4)CC3)[nH]c12,"activity change, negative = inhibition",[1],inactive
O=C(c1ccccc1)c1c[nH]c2cc3c(cc2c1=O)OCO3,"activity change, negative = inhibition",[1],inconclusive: -17.6%
O=C(c1ccco1)N1CCN(C(c2ccccc2Cl)c2nnnn2Cc2cccs2)CC1 (stereo not drawn),"activity change, negative = inhibition",[1],inconclusive: 8.29%
COc1ccc(C2=CC(c3ccc(Cl)cc3)n3cnnc3N2)cc1OC (stereo not drawn),Potency,[1],"inconclusive: 25.1 µM [falling, single point]"
COc1ccc(C2=Nn3c(nnc3-c3cccnc3)SC2)cc1,Potency,[1],active: 10 µM
O=C(Nc1ccccc1N1CCN(c2ccc(F)cc2)CC1)C1CCCCC1,"activity change, negative = inhibition",[1],inactive
COc1ccc(C2C(C(=O)NCc3cccnc3)c3ccccc3C(=O)N2C)cc1OC (stereo not drawn),"activity change, negative = inhibition",[1],inactive
CCc1nnc(NC(=O)C(C)N2C(=O)C3C4C=CC(C4)C3C2=O)s1 (stereo not drawn),"activity change, negative = inhibition",[1],inconclusive: -8.04%
O=C(Cn1c(NCCCO)nc2ccccc21)c1cccc(Br)c1,"activity change, negative = inhibition",[1],inconclusive: -6.3%
Cn1c(SCC(=O)Nc2ccc3cn[nH]c3c2)nnc1-c1cnccn1,"activity change, negative = inhibition",[1],inconclusive: 27%
COc1ccc(-c2nc(N)ncc2Oc2ccccc2Br)c(O)c1,Potency,[1],"inconclusive: 25.1 µM [falling, single point]"
CC(=O)N[C@H](c1ccccc1)[C@@]1(C)C[C@@H]1[C@@H](C)C(=O)Nc1ccc2ccccc2c1,"activity change, negative = inhibition",[1],inconclusive: -11.2%
CCCn1c(SCC(=O)N2c3ccccc3Sc3ccccc32)nc2c1c(=O)n(C)c(=O)n2C,Potency,[1],"inconclusive: 3.16 µM [rising, partial curve]"
O=C1c2ccccc2S(=O)(=O)N1CCOc1ccc(F)cc1,"activity change, negative = inhibition",[1],inactive
O=C(Nc1ccc(Cl)c(C(F)(F)F)c1)N1CCCC(O)C1 (stereo not drawn),"activity change, negative = inhibition",[1],inconclusive: -12.1%
O=C(Cn1cnc2c(cnn2-c2ccc(F)cc2)c1=O)N1CCCc2ccccc21,"activity change, negative = inhibition",[1],inactive
CC(C)CC(c1nnnn1Cc1ccco1)N1CCN(C2CCCC2)CC1 (stereo not drawn),"activity change, negative = inhibition",[1],inactive
O=c1c2ccccc2nc(SCc2nnc(-c3ccccc3)o2)n1-c1ccccc1,"activity change, negative = inhibition",[1],inconclusive: 22.4%
Cn1c(C(=O)NC2CCCCCC2)cc2c(=O)n(C)c3ccccc3c21,Potency,[1],active: 2.51 µM
CCCCn1nc(NC(=O)c2cccs2)c2cc3cc(OC)ccc3nc21,Potency,[1],"inconclusive: 3.98 µM [rising, partial curve]"
Cn1c(N)c(C(=O)NCc2ccccc2)sc1=S,"activity change, negative = inhibition",[1],inactive
CCOC(=O)Cc1nnc(NC(=O)CSc2nnc3c4ccccc4n(C(C)C)c3n2)s1,Potency,[1],active: 10 µM
NC(=O)c1cccn1Cc1ccccc1Cl,"activity change, negative = inhibition",[1],inconclusive: 8.93%
O=c1c2ccccc2nnn1Cc1nnc(-c2ccccc2Br)o1,"activity change, negative = inhibition",[1],inconclusive: 22.9%
COc1cccc(Cn2c(=O)cnc3cnc(OC)nc32)c1,"activity change, negative = inhibition",[1],inactive
O=C(Nc1nnc(COc2ccc(Cl)cc2)s1)C1CCCO1 (stereo not drawn),"activity change, negative = inhibition",[1],inactive
CCCCN(CCCC)C(=O)CSc1nnc(-c2cc(OC)c(OC)c(OC)c2)o1,Potency,[1],"inconclusive: 15.8 µM [rising, partial curve]"
COc1ccc2c(Cl)c(-c3nnc4n3CCCCC4)sc2c1,Potency,[1],"inconclusive: 5.01 µM [falling, single point]"
O=C(CCN1CCC(c2ccccc2)C1)c1cccs1 (stereo not drawn),"activity change, negative = inhibition",[1],inconclusive: -8.97%
C[C@H]1CCCC=CC2C[C@H](OC(=O)CN(C)C)C[C@@H]2[C@@H](O)/C=C\C(=O)O1 (stereo partly drawn),"activity change, negative = inhibition",[1],inactive: -6.79% [at 7.6 µM]
O=C(Nc1ccc(OC(=O)c2ccncc2)cc1)c1ccncc1,"activity change, negative = inhibition",[1],inconclusive: 18.2%
Cn1c(=O)c(-c2cc(F)cc(F)c2)nc2cncnc21,Potency,[1],"inconclusive: 10 µM [rising, partial curve]"
O=C1OC(N2CCN(C(=O)C3CCCO3)CC2)c2ccccc21 (stereo not drawn),"activity change, negative = inhibition",[1],inactive
CCCCCCCNS(=O)(=O)c1cccc2c(Cl)cccc12,"activity change, negative = inhibition",[1],inconclusive: -13.8%
CC1(C)OC(=O)C(=CNc2ncccn2)C(=O)O1,"activity change, negative = inhibition",[1],inconclusive: -3.38%
O=C(Nc1ccc(N2CCN(C(=O)c3ccccc3)CC2)c(Cl)c1)c1ccco1,"activity change, negative = inhibition",[1],inconclusive: -24.2%
